# Experimental data published in the supplement of paper PMC7826260.
# This is one part of the list. The data describe in vitro nicking of single-stranded DNA by Rep domains (3 µM enzyme, 1 h, 37 °C); shown is the middle of each 90-letter strand. Uncut reads are compared with the no-enzyme pool on a log2 scale; more negative means more cut, near 0 not cut, and no call is made. The scaling is to total reads; values above 0 arise when much of the pool is cut.
# Legend:
# Assay in all cases: uncleaved DNA left, log2 of reads against the no-enzyme library (log2 ratio); higher = less cleavage (more negative = more Rep cleavage of the k-mer); sequences stand for … in CTCGTCCG…ACCGGAGA
# [1] = tested on: T1, Rep nickase domain of Muscovy duck circovirus
# T1 sequence (protein, residues 1-111, tag omitted): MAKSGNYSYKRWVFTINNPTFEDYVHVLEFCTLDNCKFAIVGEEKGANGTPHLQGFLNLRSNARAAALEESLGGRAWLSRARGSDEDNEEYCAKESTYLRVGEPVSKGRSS
# Procedure: (§1)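 A pool of 90-nt single-stranded DNAs with seven random bases just before the constant AC of the nick site (name = the seven bases) was cut by 3 µM recombinant His6-SUMO-tagged Rep nickase domain (300 nM DNA, 50 mM HEPES pH 8.0, 50 mM NaCl, 1 mM MnCl2, 1 h, 37 °C, three replicates). Uncut DNA was amplified and sequenced.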
# [2] = tested on: T2, Rep nickase domain of banana bunchy top virus
# T2 sequence (protein, residues 1-94, tag omitted): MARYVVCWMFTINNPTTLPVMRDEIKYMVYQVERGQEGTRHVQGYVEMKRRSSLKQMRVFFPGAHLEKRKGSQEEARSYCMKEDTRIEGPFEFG
# Procedure: as §1
# [3] = tested on: T3, Rep nickase domain of cabbage leaf curl virus
# T3 sequence (protein, residues 1-116, tag omitted): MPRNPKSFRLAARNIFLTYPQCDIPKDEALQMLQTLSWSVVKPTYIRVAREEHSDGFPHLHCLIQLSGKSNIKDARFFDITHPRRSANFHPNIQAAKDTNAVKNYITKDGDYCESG
# Procedure: as §1
# [4] = tested on: T4, Rep nickase domain of chickpea chlorotic dwarf virus
# T4 sequence (protein, residues 1-124, tag omitted): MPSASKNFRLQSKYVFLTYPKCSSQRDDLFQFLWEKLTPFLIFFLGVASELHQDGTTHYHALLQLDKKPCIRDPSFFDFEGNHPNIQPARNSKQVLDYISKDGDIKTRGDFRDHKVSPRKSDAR
# Procedure: as §1
# [5] = tested on: T5, Rep nickase domain of faba bean necrotic yellows virus
# T5 sequence (protein, residues 1-98, tag omitted): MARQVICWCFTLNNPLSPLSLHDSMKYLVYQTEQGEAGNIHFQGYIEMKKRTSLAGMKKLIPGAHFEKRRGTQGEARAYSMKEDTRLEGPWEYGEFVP
# Procedure: as §1
# [6] = tested on: T6, Rep nickase domain of maize striate mosaic virus
# T6 sequence (protein, residues 1-117, tag omitted): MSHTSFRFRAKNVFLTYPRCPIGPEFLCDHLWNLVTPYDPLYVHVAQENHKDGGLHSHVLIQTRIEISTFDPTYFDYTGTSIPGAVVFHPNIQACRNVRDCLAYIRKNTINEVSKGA
# Procedure: as §1
# [7] = tested on: T7, Rep nickase domain of porcine circovirus 2
# T7 sequence (protein, residues 2-116, tag omitted): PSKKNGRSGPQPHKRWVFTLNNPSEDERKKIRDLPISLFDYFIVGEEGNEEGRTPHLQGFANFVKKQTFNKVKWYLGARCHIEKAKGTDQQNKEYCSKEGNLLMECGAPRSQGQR
# Procedure: as §1
# [8] = tested on: T8, Rep nickase domain of tomato golden mosaic virus
# T8 sequence (protein, residues 1-124, tag omitted): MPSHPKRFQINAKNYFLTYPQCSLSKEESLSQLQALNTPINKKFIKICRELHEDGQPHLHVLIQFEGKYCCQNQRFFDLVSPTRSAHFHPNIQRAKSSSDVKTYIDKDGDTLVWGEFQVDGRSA
# Procedure: as §1
# [9] = tested on: T9, Rep nickase domain of tomato yellow leaf curl virus
# T9 sequence (protein, residues 1-136, tag omitted): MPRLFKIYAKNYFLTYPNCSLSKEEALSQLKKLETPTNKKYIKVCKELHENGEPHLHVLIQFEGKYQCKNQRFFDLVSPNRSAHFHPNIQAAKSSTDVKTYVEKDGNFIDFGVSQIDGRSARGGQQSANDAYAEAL
# Procedure: as §1
# [10] = tested on: T10, Rep nickase domain of wheat dwarf virus
# T10 sequence (protein, residues 1-137, tag omitted): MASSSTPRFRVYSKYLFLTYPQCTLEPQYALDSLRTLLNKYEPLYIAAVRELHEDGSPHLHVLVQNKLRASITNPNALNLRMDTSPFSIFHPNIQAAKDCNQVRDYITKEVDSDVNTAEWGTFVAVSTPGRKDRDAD
# Procedure: as §1
Sequence,uncleaved DNA left (log2) [1],uncleaved DNA left (log2) [2],uncleaved DNA left (log2) [3],uncleaved DNA left (log2) [4],uncleaved DNA left (log2) [5],uncleaved DNA left (log2) [6],uncleaved DNA left (log2) [7],uncleaved DNA left (log2) [8],uncleaved DNA left (log2) [9],uncleaved DNA left (log2) [10]
CAGTTCC,0.126,0.0456,0.23,0.0486,0.115,0.312,-2.58,0.167,0.212,0.126
GATAGGT,0.0602,0.0781,0.397,0.995,-0.0325,1.4,0.0255,0.0391,-0.00109,-0.0099
CCTCTAT,-0.0132,-0.201,-0.0315,-0.706,-0.186,-0.276,-0.192,-0.135,-0.198,-0.0643
TTGCATG,0.0833,0.142,-0.73,-0.281,0.198,-0.968,0.215,0.0705,0.196,0.0201
TACCGTA,-0.0146,-0.125,-0.324,-2.02,-0.0809,-0.905,-0.447,-0.0547,-0.022,-0.0797
TCTGCCC,0.115,-0.0188,0.0791,-0.0404,0.00345,-0.146,-0.0566,-0.0123,0.0413,-0.0127
AAAATTA,0.0679,0.0938,-0.194,-2.39,0.0836,-0.784,-0.166,0.026,-0.0845,0.02
AATGGGA,0.0347,0.0953,0.168,0.703,0.0477,0.481,0.122,0.111,0.0196,0.0467
GGTTACT,-1.32,0.0149,0.481,0.53,0.00909,1.91,-2.34,0.0455,0.0961,0.0524
CTATACG,-0.0395,-0.0747,-0.799,-0.219,0.121,-1.05,0.221,-0.0785,0.0976,-0.156
TGACCGC,0.0012,0.0121,0.0423,0.0529,-0.0577,-0.222,-0.0884,-0.128,0.0448,0.0501
GGGCGAG,0.0428,0.124,0.876,1.98,-0.0891,2.22,0.317,0.118,0.0682,0.123
GAGGTGA,-0.0779,-0.151,0.224,0.626,-0.085,0.793,-0.102,-0.0398,-0.0228,-0.0592
TGACACC,-0.0524,-0.0446,0.237,0.484,-0.0819,0.732,-0.127,-0.0769,-0.0326,-0.0306
AGCGCAA,-0.0122,0.216,-0.0241,0.656,-0.0195,1.2,0.0274,-0.0173,-0.0389,0.0856
ATAATGG,0.127,-0.0185,-0.168,0.129,0.0281,-0.753,0.0868,0.0496,0.02,-0.0073
GGGTTGA,0.0311,-0.0674,0.695,1.78,-0.103,2.14,0.0476,-0.0963,-0.0468,0.00594
ACGTATA,-0.0522,0.0232,-0.187,-1.36,-0.0618,-0.424,-0.181,-0.0331,-0.182,-0.0662
CGCAGCA,-0.0316,0.121,0.264,0.767,-0.0145,0.743,-0.187,0.107,-0.0118,0.0818
GGACAGC,0.00899,0.0872,0.813,1.92,0.0081,2.17,0.21,-0.0108,-0.0456,0.11

Sequence,uncleaved DNA left (log2) [1],uncleaved DNA left (log2) [2],uncleaved DNA left (log2) [3],uncleaved DNA left (log2) [4],uncleaved DNA left (log2) [5],uncleaved DNA left (log2) [6],uncleaved DNA left (log2) [7],uncleaved DNA left (log2) [8],uncleaved DNA left (log2) [9],uncleaved DNA left (log2) [10]
CGTGCGC,0.0259,-0.16,-0.729,-0.551,-0.0152,-0.769,0.0123,-0.196,-0.0308,-0.184
CCTTTAC,-0.0458,-0.142,-0.357,-2.01,-0.0856,-0.923,-0.0439,-0.0248,-0.172,-0.106
CCATACC,-0.125,-0.0186,-0.0691,-1.23,0.0143,-0.729,-0.732,0.0369,-0.0447,0.0427
CGCACAA,0.0107,0.198,0.22,0.304,0.0317,-0.0712,0.0262,0.0363,0.0545,0.131
TGATAAA,-0.0221,0.0953,0.0619,0.0259,-0.0104,-0.176,-0.0989,-0.0685,-0.0833,-0.0533
ACCGTTC,-0.119,-0.138,-0.357,-0.724,-0.0775,-0.939,-0.162,-0.115,-0.177,-0.261
TAAAACT,-0.0984,-0.0956,-4.51,-3.9,0.0371,-3.13,-2.24,-3.59,0.0443,-3.77
ATCATAC,0.117,0.0251,-0.109,-0.85,0.0569,-0.988,0.114,0.00348,-0.0757,0.0861
TAACGTT,-0.137,-0.193,-3.57,-3.95,0.00253,-2.06,-1.73,-1.76,-0.285,-3.21
CACAGCT,0.00479,-0.00499,-0.53,-1.91,-0.0847,-1.1,-0.209,-0.0592,0.0512,-0.206
GTGCGAG,0.0797,0.0677,0.364,0.838,-0.00407,0.254,0.295,0.0608,0.203,0.159
GTAGCAT,-0.00903,-0.0233,0.202,0.811,-0.0852,1.84,0.0556,0.0544,0.0424,-0.0418
GGCGTTA,0.0188,0.0279,0.3,0.604,0.0118,0.912,-0.194,0.0245,0.0618,0.0701
GAGTTAG,-0.021,-0.0686,-0.598,-0.432,-0.0752,-0.824,-0.181,-0.0759,-0.0921,-0.17
CGGAACC,-0.105,-0.102,0.157,0.322,0.00825,0.447,-0.305,-0.13,-0.149,0.0275
GGTAACA,-0.084,0.116,0.646,1.32,-0.0246,2.01,0.24,0.0458,0.139,0.203
GTGTACA,0.0573,0.124,0.294,0.982,0.00077,1.84,0.0964,0.0447,0.191,0.0644
GGTCTTA,-0.0436,0.206,0.475,1.05,0.0616,1.94,0.087,0.163,0.167,0.152
TCACGCC,0.0277,-0.085,-0.043,-0.475,-0.0237,-0.735,0.00461,-0.00901,-0.0677,-0.0064
TAGAGTA,0.00966,-0.261,-0.136,-1.86,-0.145,-0.0985,-2.57,0.111,0.0298,0.0507

Sequence,uncleaved DNA left (log2) [1],uncleaved DNA left (log2) [2],uncleaved DNA left (log2) [3],uncleaved DNA left (log2) [4],uncleaved DNA left (log2) [5],uncleaved DNA left (log2) [6],uncleaved DNA left (log2) [7],uncleaved DNA left (log2) [8],uncleaved DNA left (log2) [9],uncleaved DNA left (log2) [10]
GCCGCCG,-0.0808,-0.118,-0.688,-0.359,-0.125,-0.76,0.0904,-0.11,-0.0707,-0.208
TGGGCCC,0.0501,0.129,0.719,1.52,0.0861,1.9,0.279,0.0761,0.197,0.0794
GTCCGTA,0.0295,0.0231,0.153,0.541,-0.0909,1.26,-0.138,-0.098,-0.0342,0.00993
TTGTAGT,-2.02,-0.352,-0.57,-1.13,-0.536,-1.17,-3.58,-0.18,-0.0507,-0.067
AGTGATA,0.151,0.159,0.171,0.582,0.144,1.38,-0.112,0.171,0.0886,0.147
TGTAAAT,0.106,0.253,0.28,0.352,0.238,0.698,-0.23,0.0866,0.242,0.326
TCCGTGG,-0.0672,0.024,0.249,0.665,-0.0162,0.603,0.0473,0.025,-0.0923,-0.0083
AACGTCA,-0.0845,0.0321,-0.022,-1.68,0.0645,-0.338,-0.156,-0.0252,0.0274,0.0139
GACGCAC,-0.0544,0.00184,-0.152,0.347,-0.108,-0.0845,0.0698,-0.0503,-0.0799,-0.0296
ACTGTTG,0.0169,0.0136,-0.532,-0.334,-0.00307,-1.14,0.0877,-0.0902,0.0545,-0.103
CCCCATT,-0.168,-0.181,-0.185,-2.02,-0.268,-0.905,-0.432,-0.083,-0.069,-0.124
ATGATGT,-0.0302,-0.107,-0.0833,-0.168,-0.0935,-0.606,-0.022,-0.0951,-0.27,-0.0522
CAATTTC,-0.454,0.0826,-3.23,-3.02,0.0512,-1.89,-1.26,-1.68,0.0623,-1.43
CACTACA,-0.2,-0.345,-0.463,-3.01,-0.114,-0.904,-2.24,-0.157,-0.038,-0.0571
ATAAGTA,0.0655,0.0459,-1.35,-2.5,0.0405,-0.839,-0.185,0.0203,-0.0402,-0.277
GTGGGGT,-0.0277,-0.129,0.448,1.21,-0.0563,1.74,0.121,-0.00076,-0.0268,-0.0399
CAGGCTT,-0.0172,-0.309,0.113,-0.529,-0.123,0.959,-2.67,0.0179,-0.142,-0.068
TCCTTTT,-2.98,-0.357,-0.193,-2.12,-0.0515,-0.795,-3.32,-0.28,-0.0217,-0.359
TCATAGA,0.104,0.00256,-0.15,-0.253,0.0575,-1.08,0.136,0.0351,0.0856,0.0882
TGCGTAT,0.0157,-0.146,-0.496,-0.808,-0.0924,-0.872,-0.203,-0.18,-0.172,-0.244
